# Test results from the supplement of paper PMC4723716.
# ± gives the uncertainty stated by the source. Whole data set: some 9,900 compounds, median “viability index relative to DMSO control” near 1, cut for the lowest 2% near 0.85. The list shows a part of the results.
# Test system: Plasmodium falciparum NF54 stage V gametocytes
# Assay: viability index relative to DMSO control (fraction); higher = less gametocyte killing
# Details: 2.5 µM, incubation time: 72 h
# Method in brief: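 In 1,536-well plates, 10 µl of serum-free medium holding P. falciparum NF54 stage V gametocytes (0.75% gametocytemia, 1.25% hematocrit) received compound at 2.5 µM for 72 hr at 37°C in low oxygen. After one to two hours with 3 µl of 2.5 µM MitoTracker Red CMXRos containing 0.13% saponin, red particles of 20–70 µm2 were counted in a single field per well. Viability index is reported as the particle count over the plate mean of wells treated with solvent only.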
# [1] = library set: Broad Institute DOS
# [2] = library set: Broad Institute Blood Stage
Structure (SMILES),viability index [1],viability index [2]
O=C(NC1CCCCC1)N1CC2(C1)[C@@H](c1ccccc1)[C@@H](CO)N2S(=O)(=O)Cc1ccccc1,1.12 ± 0.026,–
C[C@@H]1CCCCO[C@@H](CN(C)CC2CCCCC2)[C@@H](C)CN([C@@H](C)CO)C(=O)c2cc(NC(=O)Nc3ccc(C(F)(F)F)cc3)ccc2O1,1.1 ± 0.048,–
Cc1ccc(S(=O)(=O)N2C[C@H](O)COC[C@@H]3O[C@H](CC(=O)NCc4ccc5c(c4)OCO5)CC[C@H]32)cc1,1.01 ± 0.047,–
CCCNC(=O)N1[C@@H](C#N)[C@@H](c2ccc(C#Cc3cccc(F)c3)cc2)[C@@H]1CO,1.05 ± 0.056,–
C[C@H]1CN([C@@H](C)CO)C(=O)c2cc(/C=C/c3ccccc3)cnc2O[C@@H]1CN(C)S(=O)(=O)c1ccccc1F,1.03 ± 0.082,–
COc1cccc(S(=O)(=O)N2CCCCN3[C@H](CO)[C@@H](c4ccc(C#CCC(C)C)cc4)[C@@H]3C2)c1,0.941 ± 0.042,–
CO[C@@H]1CC[C@@H]2CCOc3ccc(C#N)cc3C(=O)N(C)C[C@@H](c3ccccc3)CC(=O)N(C)C[C@@H]1O2,1.06 ± 0.015,–
COc1ccc2c3c([nH]c2c1)[C@H](CO)N(C[C@]31CN(C1)S(C)(=O)=O)C(=O)C1CCCCC1,1.09 ± 0.1,–
CCCNC(=O)N1CC(=O)N2[C@@H](CO)[C@H](c3ccc(C#CCC4CCCC4)cc3)[C@@H]2C1,1.02 ± 0.14,–
COc1ccccc1CNC(=O)C[C@@H]1C[C@H]2c3cc(NC(=O)C4CCC4)ccc3O[C@H]2[C@H](CO)O1,1.11 ± 0.17,–
CO[C@@H]1CN(C)C(=O)c2ccc(NC(=O)Nc3ccccc3F)cc2OC[C@@H](C)N(Cc2ccccc2F)C[C@H]1C,–,0.947 ± 0.014
COc1cccc(CNC(=O)C[C@H]2CC[C@@H]3[C@@H](COc4ccc(NS(=O)(=O)c5ccccc5F)cc4C(=O)N3C)O2)c1,0.931 ± 0.13,–
C[C@@H]1CN([C@@H](C)CO)C(=O)c2ccccc2-c2ccccc2CO[C@@H]1CN(C)Cc1cccc(C(=O)O)c1,0.974 ± 0.098,–
Cc1ccccc1-c1cnc2c(c1)C(=O)N([C@@H](C)CO)C[C@@H](C)[C@@H](CN(C)Cc1ccccc1F)O2,1.12 ± 0.051,–
Cc1ccc(S(=O)(=O)Nc2ccc3c(c2)C(=O)N([C@@H](C)CO)C[C@@H](C)[C@H](CN(C)S(=O)(=O)c2cccs2)OCCCC[C@H](C)O3)cc1,0.999 ± 0.098,–
COc1ccc(S(=O)(=O)N(C)C[C@@H]2Oc3ccc(NC(=O)Cc4cn(C)c5ccccc45)cc3C(=O)N([C@H](C)CO)C[C@@H]2C)cc1,0.964 ± 0.098,–
O=C(NCc1cc(F)cc(F)c1)[C@H]1[C@H](CO)[C@H]2Cn3c(cccc3=O)[C@@H]1N2C(=O)c1cnccn1,1.01 ± 0.061,–
CO[C@@H]1CN(C)C(=O)c2ccc(NC(C)=O)cc2OC[C@@H](C)N(Cc2cccc(F)c2)C[C@H]1C,1.07 ± 0.021,–
Cc1noc(C)c1NC(=O)Nc1ccc2c(c1)C(=O)N([C@H](C)CO)C[C@@H](C)[C@@H](CN(C)Cc1ccc3c(c1)OCO3)OCCCC[C@@H](C)O2,1.12 ± 0.057,–
C[C@@H]1C/C=C/C[C@H](c2ccc(F)cc2)NC(=O)[C@@H](Cc2ccccc2)N(C)C(=O)c2ccccc2O1.C[C@@H]1C/C=C\C[C@H](c2ccc(F)cc2)NC(=O)[C@@H](Cc2ccccc2)N(C)C(=O)c2ccccc2O1,0.968 ± 0.02,–
N#C[C@@H]1[C@@H](c2ccccc2C2=CCCC2)[C@H](CO)N1C(=O)Cc1ccncc1,1.1 ± 0.067,–
O=C(Nc1ccc(F)cc1)N1CC(=O)N2[C@H](CO)[C@H](c3ccc(-c4cccc(F)c4)cc3)[C@@H]2C1,0.97 ± 0.035,–

Structure (SMILES),viability index [1],viability index [2]
COc1ccc2c3c([nH]c2c1)[C@H](CO)N(C)C[C@]31CCN(CC1)S(=O)(=O)c1cn(C)cn1,0.892 ± 0.039,–
CCCNC(=O)N1CC(=O)N2[C@H](CO)[C@@H](c3ccc(C#CCC4CCCC4)cc3)[C@@H]2C1,0.997 ± 0.11,–
N#Cc1ccc(-c2ccc([C@@H]3[C@@H]4CN(C(=O)C5CCCCC5)C[C@H]3N4)cc2)cc1,0.948 ± 0.055,–
CCCNC(=O)[C@@H]1[C@@H](CO)[C@@H]2Cn3c(ccc(C4=CCCCC4)c3=O)[C@@H]2N1Cc1ccccc1F,1.0042 ± 0.00092,–
CN1C(=O)c2cc(NC(=O)C3CCOCC3)ccc2OC[C@H]2O[C@@H](CC(=O)NCC3CCCCC3)CC[C@H]21,1.1 ± 0.064,–
CCCNC(=O)C[C@H]1CC[C@H]2[C@@H](COC[C@@H](O)CN2Cc2ccncc2)O1,1.11 ± 0.015,–
O=C(C[C@@H]1C[C@@H]2c3cc(NC(=O)c4ccc5c(c4)OCO5)ccc3O[C@@H]2[C@@H](CO)O1)NCc1ccc(Oc2ccccc2)cc1,0.981 ± 0.069,–
Cc1noc(C)c1NC(=O)N(C)C[C@@H]1OCCCC[C@@H](C)Oc2ccc(NC(=O)Nc3ccc(C(F)(F)F)cc3)cc2C(=O)N([C@H](C)CO)C[C@H]1C,1.08 ± 0.073,–
O=C(C[C@@H]1C[C@H]2c3cc(NC(=O)Nc4ccccc4)ccc3O[C@H]2[C@@H](CO)O1)NCc1ccccc1,1.07 ± 0.064,–
CCCNC(=O)Nc1ccc2c(c1)OC[C@H](C)N(Cc1cncnc1)C[C@@H](C)[C@@H](OC)CN(C)C2=O,1.02 ± 0.021,–
NCC[C@H]1CC[C@@H](NS(=O)(=O)c2ccc(Cl)cc2)[C@H](CO)O1,1.07 ± 0.15,–
O=S(=O)(c1ccccc1)N1CCCCN2[C@@H](CO)[C@@H](c3ccc(C#CC4CCCC4)cc3)[C@@H]2C1,0.8429 ± 0.006,–
Cc1ccc(S(=O)(=O)Nc2ccc3c(c2)C(=O)N([C@H](C)CO)C[C@@H](C)[C@H](CN(C)S(=O)(=O)c2cccs2)OCCCC[C@H](C)O3)cc1,1.04 ± 0.077,–
CC(C)C(=O)Nc1ccc2c(c1)C(=O)N(C)[C@H]1CC[C@@H](CC(=O)NCCc3ccccc3)O[C@H]1CO2,1.07 ± 0.063,–
Cc1ccc(S(=O)(=O)Nc2ccc3c(c2)C(=O)N(C)[C@H]2CC[C@@H](CC(=O)NCCc4ccncc4)O[C@H]2CO3)cc1,0.918 ± 0.048,–
COc1ccc2c3c([C@@H](CO)N(C[C@]33CCN(C)CC3)S(=O)(=O)c3cn(C)cn3)n(C)c2c1,1.1 ± 0.066,–
COc1ccc(S(=O)(=O)Nc2ccc3c(c2)C(=O)N([C@H](C)CO)C[C@@H](C)[C@H](CN(C)S(=O)(=O)c2ccc(Cl)cc2)OCCCC[C@H](C)O3)cc1,0.823 ± 0.033,–
Cc1noc(C)c1S(=O)(=O)Nc1ccc2c(c1)C(=O)N([C@H](C)CO)C[C@H](C)[C@@H](CN(C)C(=O)NC1CCCCC1)O2,1.05 ± 0.14,–
O=C(Cc1cccnc1)N1CC2(C1)[C@H](c1ccccc1)[C@H](CO)N2C(=O)C1CCOCC1,1.156 ± 0.0057,–
CN1C(=O)c2cc(NC(=O)c3cccc(Cl)c3)ccc2OC[C@@H]2O[C@@H](CC(=O)NC3CCCCC3)CC[C@@H]21,0.911 ± 0.075,–
C[C@@H]1CN([C@@H](C)CO)C(=O)c2cccc(NC(=O)Nc3ccc(F)cc3)c2O[C@@H]1CN(C)S(=O)(=O)c1ccc(Cl)cc1,0.9877 ± 0.002,–
CCCC#Cc1ccc2c(c1)O[C@@H](CN(C)Cc1ccccn1)[C@H](C)CN([C@@H](C)CO)S2(=O)=O,0.9365 ± 0.0091,–

Structure (SMILES),viability index [1],viability index [2]
Cc1cc(C(=O)Nc2cccc3c2O[C@H](CN(C)C)[C@H](C)CN([C@H](C)CO)C3=O)n(C)n1,0.968 ± 0.029,–
O=C(Nc1cc(F)ccc1F)N1CC(=O)N2[C@H](CO)[C@@H](c3ccc(/C=C/c4ccccc4)cc3)[C@@H]2C1,1.059 ± 0.0045,–
CCC(=O)N1[C@@H](CO)[C@H](c2ccccc2)C12CN(C(=O)c1ccc3c(c1)OCO3)C2,0.971 ± 0.017,–
N#C[C@H]1[C@H](c2ccccc2-c2ccccc2F)[C@H](CO)N1C(=O)C1CCC1,1.14 ± 0.022,–
COc1ccccc1S(=O)(=O)N(C)C[C@@H]1OCc2ccccc2-c2c(n(C)c3ccccc23)C(=O)N([C@@H](C)CO)C[C@@H]1C,–,0.981 ± 0.05
C[C@@H]1CCCCO[C@@H](CN(C)S(=O)(=O)c2cn(C)cn2)[C@H](C)CN([C@@H](C)CO)C(=O)c2cc(NC(=O)Nc3cccc4ccccc34)ccc2O1,1.02 ± 0.062,–
O=C(C[C@H]1C=C[C@H](NC(=O)Nc2ccc3c(c2)OCO3)[C@H](CO)O1)NCCCN1CCOCC1,0.9928 ± 0.0036,–
C[C@H]1COCc2cn(nn2)CCCC(=O)N1,1 ± 0.045,–
CO[C@@H]1CN(C)C(=O)c2ccc(NC(=O)c3ccccc3F)cc2OC[C@@H](C)N(C)C[C@H]1C,1.11 ± 0.044,–
CC(C)CC#Cc1ccc([C@H]2[C@@H](CO)N3C(=O)CN(C(=O)Nc4cc(F)ccc4F)C[C@H]23)cc1,1.04 ± 0.077,–
COc1cccc(S(=O)(=O)N2C[C@H](O)COC[C@H]3O[C@H](CC(=O)NCCCN4CCOCC4)CC[C@@H]32)c1,1.061 ± 0.0083,–
O=C(C1CCOCC1)N1CC(=O)N2[C@H](CO)[C@@H](c3ccc(/C=C/c4ccccc4)cc3)[C@@H]2C1,1.05 ± 0.082,–
C[C@H]1CCCCO[C@@H](CN(C)CC2CC2)[C@@H](C)CN([C@@H](C)CO)C(=O)c2cc(NC(=O)c3ccccc3)ccc2O1,1.08 ± 0.016,–
COC(=O)[C@H]1[C@H](CO)[C@H]2Cn3c(ccc(C4=CCCC4)c3=O)[C@H]2N1C(=O)Cc1cccnc1,1.01 ± 0.14,–
CN1CCN(C(=O)c2cc3c(c(-c4cccc(C5=CCCC5)c4)n2)[C@@H](CCO)N([S@](=O)C(C)(C)C)C3)CC1,0.991 ± 0.024,–
CNC[C@H]1Oc2c(NC(=O)Nc3cccc4ccccc34)cccc2C(=O)N([C@@H](C)CO)C[C@H]1C,0.9539 ± 0.0054,–
C[C@H]1CN([C@@H](C)CO)C(=O)CCCn2nncc2CO[C@@H]1CN(C)C(=O)Nc1ccccc1C(F)(F)F,0.977 ± 0.062,–
N#C[C@H]1[C@H](c2ccccc2)[C@@H](CO)N1C(=O)Nc1cccc(F)c1,1.07 ± 0.081,–
C[C@H](CO)N1C[C@H](C)[C@H](CN(C)S(=O)(=O)c2ccc(-n3cccn3)cc2)OCc2cn(nn2)CCCC1=O,1.12 ± 0.042,–
C[C@H](CO)N1C[C@H](C)[C@@H](CN(C)C(=O)Nc2ccccc2)OCCCC[C@H](C)Oc2ccc(NC(=O)Nc3ccccc3)cc2C1=O,1.03 ± 0.079,–
COc1ccc2c3c([nH]c2c1)[C@@H](CO)N(C[C@]31CN(CC2CCOCC2)C1)S(C)(=O)=O,1.07 ± 0.027,–
COc1cccc(-c2ccc3n(c2=O)C[C@H]2[C@H](CO)[C@@H](C(=O)NCC4CC4)[C@@H]3N2S(C)(=O)=O)c1,1.08 ± 0.053,–
